Patent US9493440B2, “Compounds inhibiting leucine-rich repeat kinase enzyme activity” (Merck Sharp & Dohme Corp., priority 2013, dated 2016)

Target: LRRK2(G2019S mutation, GST-LRRK2(amino acids 970-2527)) (Homo sapiens (Human), UniProt Q5S007, G2019S)
Assay: LRRK2 Km ATP LanthaScreen Assay
Conditions: read-out: LRRK2 IC50; Km ATP LanthaScreen Assay, mean IC50

SMILES | IC50 [nM]
CCC1(Oc2ccc3[nH]nc(-c4cc(N5C[C@@H](C)O[C@@H](C)C5)ncn4)c3c2)COC1 [Example 197] | 0.89
C[C@H]1C[C@@H](N)CN1c1cc(-c2n[nH]c3ccc(OC4(C)CC4)cc23)ncn1 [Example 221] | 1.54
COCCOC1CCN(c2cc(-c3n[nH]c4ccc(OC5(C)CC5)cc34)ncn2)CC1 [Example 227] | 0.94
CC1(Oc2cc3c(-c4cc(N5CCS(=O)(=O)CC5)ncn4)n[nH]c3cc2F)CC1 [Example 186] | 0.6
CC1(Oc2ccc3[nH]nc(-c4cc(N5CCO[C@H](CO)C5)ncn4)c3c2)CC1 [Example 24] | 0.78
Cc1nonc1N1CCN(c2cc(-c3n[nH]c4cc(F)c(OC5(C)CC5)cc34)ncn2)CC1 [Example 174] | 0.6
CC1(Oc2ccc3[nH]nc(-c4cc(N5CCOC6(CCCC6)C5)ncn4)c3c2)CC1 [Example 98] | 1.6
CC1(C)CN(c2cc(-c3n[nH]c4ccc(OC5(C)CC5)cc34)ncn2)CCO1 [Example 109] | 1.8
CC1(Oc2ccc3[nH]nc(-c4cc(N5CCC6(CCNC6=O)C5)ncn4)c3c2)CC1 (stereo not shown) [Example 31] | 1.29
CC1(Oc2ccc3[nH]nc(-c4cc(N5CCN(C(=O)CO)CC5)ncn4)c3c2)CC1 [Example 93] | 1.3
CC1(Oc2cc3c(-c4cc(N5CCN(S(C)(=O)=O)CC5)ncn4)n[nH]c3cc2F)CC1 [Example 155] | < 0.6
CC1(Oc2ccc3[nH]nc(-c4cc(N5CCN(Cc6ncco6)CC5)ncn4)c3c2)CC1 [Example 120] | 1.2
CCC1(Oc2ccc3[nH]nc(-c4cc(N5CC6CCC(C5)O6)ncn4)c3c2)CC1 [Example 209] | 3.2
C[C@H]1[C@H](O)[C@@H](O)CN1c1cc(-c2n[nH]c3ccc(OC4(C)CC4)cc23)ncn1 [Example 220] | 1.77
CC1(Oc2ccc3[nH]nc(-c4cc(N5C[C@H](F)[C@@H](F)C5)ncn4)c3c2)CC1 [Example 7] | 3.92
CC1(Oc2ccc3[nH]nc(-c4cc(N5CCC5)ncn4)c3c2)CC1 [Example 45] | 3.9

SMILES | IC50 [nM]
CC1(Oc2ccc3[nH]nc(-c4cc(N5CC[C@H](N)C5)ncn4)c3c2)CC1 [Example 22] | 2.19
CC1(Oc2ccc3[nH]nc(-c4cc(N5CC(O)C5)ncn4)c3c2)CC1 [Example 63] | 2
CCC1(Oc2ccc3[nH]nc(-c4cc(N5C[C@H](N)C[C@@H]5C)ncn4)c3c2)CC1 [Example 215] | 2.59
CC1(Oc2ccc3[nH]nc(-c4cc(N5CCC6(CCC(=O)N6)CC5)ncn4)c3c2)CC1 [Example 32] | 0.86
CN1CC2(CCN(c3cc(-c4n[nH]c5ccc(OC6(C)CC6)cc45)ncn3)CC2)CC1=O [Example 37] | 0.7
C[C@@H](CO)Nc1cc(-c2n[nH]c3ccc(OC4(C)CC4)cc23)ncn1 [Example 64] | 13.8
c1nc(-c2n[nH]c3ccc(O[C@H]4CCOC4)cc23)cc(N2CCOCC2)n1 [Example 163] | 12.1
C[C@@H]1CN(c2cc(-c3n[nH]c4cc(F)c(OC5(C)CC5)cc34)ncn2)C[C@H](C)O1 [Example 150] | 0.79
COCCN1CCN(c2cc(-c3n[nH]c4cc(F)c(OC5(C)CC5)cc34)ncn2)CC1 [Example 160] | < 0.52
CC1(Oc2ccc3[nH]nc(-c4cc(N5CCC(O)(C(F)(F)F)CC5)ncn4)c3c2)CC1 [Example 79] | 2.9
C[C@H]1[C@H](O)[C@@H](O)CN1c1cc(-c2n[nH]c3cc(F)c(OC4(C)CC4)cc23)ncn1 [Example 157] | 1.31
COCC(C)N1CCN(c2cc(-c3n[nH]c4ccc(OC5(C)CC5)cc34)ncn2)C[C@@H]1C (stereo partly shown) [Example 131] | 0.6
C[C@H]1CN(c2cc(-c3n[nH]c4ccc(OC5(C)CC5)cc34)ncn2)CCO1 [Example 85] | 5.8
CC1(Oc2ccc3[nH]nc(-c4cc(N5CCC(n6cccn6)CC5)ncn4)c3c2)CC1 [Example 80] | 5
CC1(Oc2cc3c(-c4cc(N5CC[C@@H](N)C5)ncn4)n[nH]c3cc2F)CC1 [Example 203] | 1.38
